In PubChem BioAssay AID624296 (National Center for Advancing Translational Sciences (NCATS), 2012):
Among all 350,000 compounds or so, about 9,900 (2.8%) were called active. The shares of active, inactive and inconclusive entries below differ from those in the screen. Calls come from the whole dose curve; as a rule, active = well fitted activation curve with a large enough effect; inconclusive = small, poorly fitted or top-dose-only effect; inactive = no such curve, though single readings can be large or run the other way. Potencies of inconclusive entries are left out as doubtful fits.

test: A quantitative high throughput screen for small molecules that induce DNA re-replication in MCF 10a normal breast cells.; note: nearly all actives have a fitted effect of over 50% in size; conditions: MCF 10A DNA re-replication, Hoechst nuclear intensity, 48 h; series mostly up to 46.1 µM
Potency is the fitted concentration of half-maximal effect; tags give direction and shape of the fitted curve.

SMILES	Potency
COc1cccc(CC(=O)n2nc(N)c3cc4ccc(OC)cc4nc32)c1	inconclusive [activator, full curve, poor fit]
CC(=O)Nc1ccc(S(=O)(=O)N2CCN(C(=O)C3COc4ccccc4O3)CC2)cc1 (stereo not given)	inconclusive [activator, single point]
CC(C)N(C(=O)CSc1nc2ccccc2n1-c1ccccc1)C(C)C	inconclusive [activator, full curve, poor fit]
O=C(c1cc(C2CC2)nc2ccccc12)N1N=C(C(F)F)CC1(O)C(F)F (stereo not given)	inconclusive [activator, single point]
O=c1sc2ccccc2c(N2CCCC2)c1[N+](=O)[O-]	inconclusive [activator, full curve, poor fit]
COc1ccc(-c2ccc3cc(C(=O)O)ccc3c2)cc1C12CC3CC(CC(C3)C1)C2	inconclusive [activator, full curve]
CCCOc1ccccc1NC(=O)/C=C/C(N)=O	active: 4.47 µM
Cc1ccc(C(C)NC(=O)c2ccncc2)cc1C (stereo not given)	inactive
CC1CCN(C(=O)c2ccc(S(=O)(=O)Cc3ccccc3F)c([N+](=O)[O-])c2)CC1	inconclusive [activator, single point]
Cc1cc(C(C)(C)C)cc(C)c1Cn1c2[n+](c3ccc(C(F)(F)F)cc31)CCCCC2	inconclusive [activator, single point]
CCCCCCC1CCC(C(=O)NC(CCSC)C(=O)NC(C(=O)OC)C(C)C)CC1 (stereo not given)	active: 7.31 µM
CCOC(=O)c1cccc(NC(=O)Nc2ccc(OCC)cc2)c1	inactive
CC1=CC(C)(C)N(C(=O)C(C)N2C(=O)c3ccccc3C2=O)c2ccc(C)cc21 (stereo not given)	inconclusive [activator, single point]
Cc1cccc(-n2nnnc2SCC(=O)NCC2CCCO2)c1 (stereo not given)	inactive
CCCC(=O)OCCNc1cc(Sc2nc3ccccc3[nH]2)c2nonc2c1[N+](=O)[O-]	inconclusive [activator, full curve]
C/C(=N\NC(=O)c1cc(C2CC2)nc2ccccc12)c1ccc(C)s1	inconclusive [activator, single point]
Fc1cccc2sc(N3CCOCC3)nc12	inactive
Cc1cc(-c2ccccc2)c2c(=O)[nH][nH]c2n1	inconclusive [activator, partial curve, poor fit]
COc1ccc(OC)c(-c2cc(C(=O)N3CCc4ccccc4C3)no2)c1	inconclusive [activator, single point]
O=C(/C(=C/O)N=Nc1ccccc1)c1ccncc1	inconclusive [activator, single point]
N#Cc1ccccc1NC(=O)COc1c(Br)cc(Br)c2cccnc12	active: 25.9 µM
CCOc1cc(CNc2ccc(O)cc2)cc(Br)c1OCc1ccccc1F	inconclusive [activator, single point]
COC(=O)c1sccc1NC(=O)c1cc(-c2cc(C)ccc2C)nc2ccccc12	inconclusive [activator, single point]

SMILES	Potency
COc1cc(C(=O)Nc2ccc3c(c2)ncn3C)cc(OC)c1OC	active: 3.66 µM
O=C(O)C1CCCCC1C(=O)Nc1ccc(OCc2ccccc2)cc1 (stereo not given)	inconclusive [activator, single point]
CC(=O)OCC1=C(C(=O)O)N2C(=O)[C@@H](NC(=O)Cc3ccccc3)[C@H]2SC1	inactive
Cn1c(SCC(=O)Nc2ccc3nc(SCC(=O)N4CCCC4)sc3c2)nnc1-c1ccccc1	inactive
CS(=O)(=O)N(Cc1ccc(Cl)cc1)c1ccc(C(=O)Nc2cccnc2)cc1	inactive
O=C(c1ccc2c3c(cccc13)C(=O)N(O)C2=O)N1CCCCC1	inconclusive [activator, partial curve, poor fit]
COc1cc(C2c3c(n[nH]c3C)C(=O)N2c2ccc(Br)cc2)ccc1O (stereo not given)	inconclusive [activator, partial curve, poor fit]
COCCCNC(=O)CCc1c(C)nc2c(c(C)nn2-c2ccccc2)c1C	inactive
C=C(C)COc1ccc(-c2nc(N)ncc2-c2ccc(Br)cc2)c(O)c1	active: 23.1 µM
CC(C)(C)c1cc(C(F)(F)F)n2ncc(-c3ccccc3)c2n1	inactive
COc1ccc(S(=O)(=O)Nc2ccc(S(=O)(=O)N3CCCCC3)cc2)cc1OC	inconclusive [activator, single point]
C/C(=N\NC(=O)Cc1cccn1C)c1ccc2ccccc2c1	inactive
N#Cc1ccc(C(=O)OCC(=O)NC(=O)NCc2ccccc2)cc1	inactive
CSc1n[nH]c2nc3c(c(=O)n12)C1(CCCCC1)Cc1ccccc1-3	inconclusive [activator, single point]
COc1cc(C(=O)N(C)C2CCCN(Cc3ccccc3F)C2)cc(OC)c1OC (stereo not given)	inconclusive [activator, partial curve, poor fit]
COc1ccc(CN2C(=NC(=O)C3CCCO3)SC3CS(=O)(=O)CC32)cc1OC (stereo not given)	inactive
CN=C1NN=C(c2cc(C)n(-c3c(C)n(C)n(-c4ccccc4)c3=O)c2C)CS1	inactive
CN(C1CCCCC1)S(=O)(=O)c1ccc(NC(=O)C2CCCCC2C(=O)O)cc1 (stereo not given)	inconclusive [activator, partial curve, poor fit]
COc1cc(OC)c2c(-c3cccc(-c4ccc(F)c(Cl)c4)c3)cc(=O)oc2c1	active: 4.61 µM
Cc1noc(C)c1C(=O)N(CC(=O)Nc1ccc(Cl)c(C(F)(F)F)c1)Cc1ccco1	inconclusive [activator, single point]
COC(=O)N/C(C)=C1/NC(=O)c2ccccc2C(c2ccccc2)N1 (stereo not given)	inactive
Cc1ccc2nc(SCC(=O)Nc3cccc(S(=O)(=O)N(C)C)c3)[nH]c2c1	inconclusive [activator, partial curve, poor fit]
